Whole data set: some 33,000 sequences, median “E-score (-0.5 to 0.5)” near -0.021, cut for the highest 2% near 0.32. The list shows a part of the results.
Target: T1, Zap1 (UniProt P47043)
T1 sequence: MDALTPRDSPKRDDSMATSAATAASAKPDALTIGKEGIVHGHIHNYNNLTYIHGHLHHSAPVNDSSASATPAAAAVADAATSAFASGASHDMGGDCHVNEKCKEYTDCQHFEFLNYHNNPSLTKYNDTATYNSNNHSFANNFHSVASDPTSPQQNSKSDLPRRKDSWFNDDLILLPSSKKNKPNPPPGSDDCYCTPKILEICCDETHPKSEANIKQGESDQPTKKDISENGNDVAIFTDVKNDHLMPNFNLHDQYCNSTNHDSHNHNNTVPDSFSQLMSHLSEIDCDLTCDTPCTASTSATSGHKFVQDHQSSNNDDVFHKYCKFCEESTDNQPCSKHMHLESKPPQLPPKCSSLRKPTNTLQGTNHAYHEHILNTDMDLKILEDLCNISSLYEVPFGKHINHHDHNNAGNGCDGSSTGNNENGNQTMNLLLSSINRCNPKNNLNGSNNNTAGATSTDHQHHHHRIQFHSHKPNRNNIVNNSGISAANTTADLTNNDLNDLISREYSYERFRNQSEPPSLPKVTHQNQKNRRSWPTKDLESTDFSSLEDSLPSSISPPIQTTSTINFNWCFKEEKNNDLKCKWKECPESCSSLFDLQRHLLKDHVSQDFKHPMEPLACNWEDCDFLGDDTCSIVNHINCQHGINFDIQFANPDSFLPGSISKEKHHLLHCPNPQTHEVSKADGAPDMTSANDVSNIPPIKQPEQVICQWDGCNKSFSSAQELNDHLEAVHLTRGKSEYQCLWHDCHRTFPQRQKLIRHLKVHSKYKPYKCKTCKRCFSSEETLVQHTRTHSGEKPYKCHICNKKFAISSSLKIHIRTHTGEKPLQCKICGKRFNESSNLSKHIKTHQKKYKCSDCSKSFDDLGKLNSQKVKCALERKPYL
Assay: PBM E-score (8-mer binding enrichment) (E-score (-0.5 to 0.5)); higher = stronger / more preferred TF binding; most listed sequences are background and not binding sites
Settings: protein concentration: 200 nM; construct: GST-full length
Summary of the method: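 Detection of bound protein used fluorescent anti-GST, with scans normalised by masliner. The proteins were GST-tagged yeast transcription factors applied at about 100-200 nM to universal all-10-mer Agilent arrays made double-stranded by primer extension. Each ungapped eight-base word, pooled with its reverse complement, was scored with an E-score from the Universal PBM Analysis Suite.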

Sequence | PBM E-score
CCACGTGA | 0.031
CGTTAGAA | -0.0128
ACTTCCTA | 0.0764
ACACTAAA | 0.211
AGCGCGTC | -0.199
GCAGCACC | -0.0828
CCATGTCC | -0.0808
CTGGGTCC | -0.0119
AATGTCGT | -0.0154
CGAACGTA | 0.0414
GGCCGCAA | -0.0567
ACGGACCC | 0.0387
AGAGACAC | -0.242
ACGTAAAT | -0.0357
AGAAAACT | 0.123
GCGAACCC | 0.00303
AGCCCGGA | -0.0971
CATATTGA | -0.0609
CAAACGCA | -0.174
CATTGGAG | -0.0511
CATCTAAC | -0.119
CGGTGCTA | -0.00968
AATGACTC | -0.18
CAATGGCC | -0.177
CAGTGGGC | -0.131

Sequence | PBM E-score
GACATCAC | -0.0987
CCCCTGCA | -0.104
GTAACTAA | 0.241
CGGGTGCA | 0.0579
CTAGGCAA | -0.104
ATACATTC | -0.0563
ACAAGAGA | -0.043
GACTTGCC | -0.269
AATGACAG | -0.0283
CTCTGTCC | -0.0177
CATCACGA | -0.0653
ACATGAGT | -0.154
GATTTTAC | 0.00547
ACTTGAGC | -0.0825
AATTCCTC | -0.0854
CCTATATC | 0.0413
GTCGTGGA | -0.0109
ACCAGGAG | 0.119
AAGTAGAA | 0.00198
ACAAGACC | 0.064
CTCGAAGC | -0.204
CGAAATAG | 0.079
AGAGGTAC | 0.298
CTCATAAG | 0.0146
TCTGCGCA | -0.203

Sequence | PBM E-score
GGAACGAC | -0.247
GACGAAGC | -0.194
CGTCCGAC | -0.258
CATCCCCC | -0.226
ATATAGTA | 0.121
GCCGCGAA | -0.0427
CTAATAGA | 0.108
CGACCAGA | 0.147
GATCTTGC | -0.156
ATCAGTTG | 0.103
CTTCCATC | -0.189
TCGGCAAA | -0.0536
GAGCGATC | -0.113
ATCGCACG | -0.191
GACATAGC | -0.174
AAGCGCGA | 0.0311
ATCGGGGC | -0.185
ACCAAGGA | 0.0897
AATAGACT | -0.0494
ACTCTCCC | -0.291
CAGTACTA | 0.164
CCGTGTAC | 0.0294
AGACGGGG | -0.267
TAATTATA | 0.244
CTGAATAA | 0.062

Sequence | PBM E-score
GGCGAAGA | -0.185
CGCACTAC | -0.149
CCAGCTTC | -0.0539
CCCCTACG | -0.117
CACGGTAG | 0.121
ACCACTTG | 0.0803
CAAGGATA | 0.111
GTCGTTAA | -0.0519
CACTAGTG | 0.0966
CATTATGA | 0.00683
CCCAAAAC | 0.304
AGCCCCTC | 0.0435
GACGGATA | 0.067
ATCGCTTA | -0.0917
CGGGGGAG | -0.341
TGCACTAA | 0.096
AGCACATC | -0.152
AGATTCGG | 0.0257
GAGTATGA | -0.112
ACTATTGA | 0.138
TCCGATAA | -0.064
AGTGGATA | -0.0371
CTGGCTAC | -0.0602
CGGGCTGC | -0.0991
GATTTATA | 0.134

Sequence | PBM E-score
AACCCTGC | 0.385
ATGTGTCA | -0.118
ACAATCCT | 0.0854
CACATATG | -0.121
CGTAGCTA | -0.145
AATAATCC | 0.213
ACCCGCCC | 0.238
AACTCTGG | 0.0995
GTACCTAA | 0.211
ATTGCTGG | -0.0125
CTATGGAC | -0.0486
TATCCACA | 0.0984
ACGTCTTG | -0.119
AGTTTCCA | 0.123
AACATACA | 0.129
ACCGTGCG | 0.165
CGGCTTAA | 0.247
GTTCCTCA | 0.128
AGCAATAG | -0.198
GTAGGCAA | -0.176
AGAGGCTA | -0.106
ACGTCGTG | -0.127
CCCCACAG | 0.00441
GATCTACC | 0.11
CTTAGAAG | -0.0562

Sequence | PBM E-score
AACGACTT | -0.183
AGCATCGC | -0.254
AGCGTATG | -0.236
GACTCCTA | -0.0525
CCCGGGTA | 0.278
AAACGTTG | -0.122
CATTCTAC | -0.0209
CAATACTA | -0.0617
CAGTCATG | -0.164
CTAAAGGA | 0.212
GGGTAGGA | 0.095
CCGAACGG | 0.0451
CTCCACAA | 0.107
GCCCAAAA | 0.179
ATTTTTTG | 0.0652
AGTGGCAA | -0.0405
AACCCTCC | 0.185
ATAAGTCG | -0.254
AACGTTGG | -0.0938
AGGAGACT | -0.428
CACGCTCA | 0.0304
CGTGCGCC | -0.216
ATGTGCGA | -0.141
GCGGATAC | -0.00046
ATGGCGGA | -0.168

Sequence | PBM E-score
CACCAAGA | 0.0172
ATTGGTCC | 0.00808
AGGACCGC | -0.0185
GAAATTTC | -0.0789
GAGTACTA | 0.101
AGCTATAG | -0.173
CGACTACA | -0.24
GGGGGTAC | 0.186
AGCAAAGA | -0.0273
CAGCTCGC | -0.123
AGTTGAAT | 0.0291
AAAGAGCT | -0.135
TCCACCAA | -0.00074
AATTTCTC | 0.0707
CTGAAAGC | 0.0574
ATGGACTG | -0.263
GCAAGCGA | -0.134
CGACAACC | 0.339
AAGGGATA | 0.118
AACCAAGA | 0.247
CCCTGTCC | 0.0191
AATGAAGC | -0.0777

Reference: the supplement of paper PMC3334620
